From PubChem BioAssay AID1454 (National Center for Advancing Translational Sciences (NCATS), 2008)
Among all 130,000 compounds or so, about 550 (0.42%) were called active. Inconclusive results, whose numbers are uncertain, are shown with a selection of clear calls. The call rests on the fitted dose curve; in most records, active means well fitted inhibition curve with a large enough effect; inconclusive means small, poorly fitted or top-dose-only effect, or effect the other way; inactive means flat fitted curve, though single readings scatter. Potencies of inconclusive entries are left out as doubtful fits.

experiment: qHTS Assay for Inhibitors of the ERK Signaling Pathway using a Homogeneous Screening Assay; Stimulation with EGF; conditions: HEK293-V1b, EGF-stimulated phospho-ERK AlphaScreen; activity change, negative = inhibition: at the top concentration; further: nearly all actives have a fitted effect of over 55% in size;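 on activity change, negative = inhibition: plate controls were stimulated vehicle wells for no effect and unstimulated vehicle basal for full effect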
In short: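 Phospho-ERK1/2 measured by AlphaScreen (SureFire) after 5 min 25 nM EGF stimulation of V1b-expressing HEK293 cells preincubated 30 min at 37C with titrated compounds; data scaled to DMSO and EGF controls, Hill-fitted AC50.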
Potency means the concentration at half of the fitted maximal effect; tags describe the fitted curve by direction and shape.

Row | Structure (SMILES) | Potency | activity change, negative = inhibition
1 | O=C(Nc1cccc(S(=O)(=O)N2CCOCC2)c1)c1ccc2c(=O)n3c(nc2c1)CCCCC3 | inconclusive [inhibitor, single point] | 
2 | O=[N+]([O-])c1cc(C(F)(F)F)ccc1NN=C1CCCC1 | inconclusive [inhibitor, partial curve] | 
3 | COc1cccc(Cn2c(=O)c(-c3ccc(Cl)cc3)nc3cnc(N(C)C)nc32)c1 | inconclusive [activator, single point] | 
4 | COc1ccccc1NC1=C(NC(C)=O)C(=O)c2ccccc2C1=O | inconclusive [inhibitor, partial curve] | 
5 | CC(C)(C)c1cc(NCCCn2ccnc2)n2ncc(-c3ccccc3)c2n1 | inconclusive [inhibitor, single point] | 
6 | CCOC(=O)C1=C(c2ccc(OC)cc2)C(=O)c2ccccc2C1=O | active: 31.6 µM | 
7 | Cc1cc(NC(=O)COC(=O)c2oc3c(ccc4ccccc43)c2C)no1 | inconclusive [inhibitor, partial curve] | 
8 | O=C(CSc1ncc(C(F)(F)F)cc1Cl)NCC1CCCO1 (centres undefined) | inconclusive [inhibitor, full curve] | 
9 | COc1ccc(CCNc2ccc(N3C(=O)CC(C)C3=O)cc2[N+](=O)[O-])cc1 (centres undefined) | inconclusive [activator, partial curve, poor fit] | 
10 | COc1ccc2cc3c(N)nn(C(=O)C4CCC(C(C)(C)C)CC4)c3nc2c1 (centres undefined) |  | inactive: 1.18%
11 | CC1(C)C(=O)C(c2ccccc2)=C2CN3C(=O)N(CCc4ccccc4)C(=O)C3(Cc3ccc(F)cc3)C=C21 (centres undefined) |  | inactive: -5.99%
12 | CN=c1scc(C)n1/N=C/c1cc(Br)c(O)c(OC)c1 | inconclusive [inhibitor, single point] | 
13 | CN(C)/N=C/c1ccc(Sc2ccc([N+](=O)[O-])cc2[N+](=O)[O-])o1 | inconclusive [inhibitor, partial curve] | 
14 | C=CCn1c(C)cc(C(=O)CSc2nnc(NCc3ccccc3)s2)c1C | inconclusive [inhibitor, single point] | 
15 | CCCCCCCOC(=O)C[N+](C)(C)CCOC1CC2CCC1(C)C2(C)C (centres undefined) | inconclusive [inhibitor, single point] | 
16 | CC(C)C1C(c2ccccc2)NC(c2ccccc2)CC1(O)c1ccc(F)cc1 (centres undefined) | inconclusive [inhibitor, single point] | 
17 | O=C(CN1CCOCC1)n1c2c(c3ccccc31)CCCC2 |  | inactive: 7.01%
18 | c1ccc(-c2ccc(N3CC[C@@]4(CCCNC4)C3)cc2)cc1 | inconclusive [inhibitor, single point] | 
19 | Cn1c(NC(=O)c2ccccc2F)c(-c2cccs2)c(=O)c2ccccc21 | inconclusive [inhibitor, partial curve, poor fit] | 
20 | Cc1ccc(NC2=CC(=O)C(=O)c3ccccc32)cc1 | inconclusive [inhibitor, partial curve, poor fit] | 
21 | CS(=O)(=O)c1sc(C#N)c2c1C(=O)CC(c1ccccc1)C2 (centres undefined) | inconclusive [inhibitor, single point] | 
22 | CCN(C(=O)COC(=O)c1cc(-c2ccccc2)nc2c1c(C)nn2-c1ccccc1)C1CCS(=O)(=O)C1 (centres undefined) |  | inactive: -2.8%

Row | Structure (SMILES) | Potency | activity change, negative = inhibition
23 | CC(C)C1OC(c2cccc(NC(=O)c3cccs3)c2)OCC1(C)C (centres undefined) | inconclusive [inhibitor, single point] | 
24 | CC(=O)N/C(=C\c1ccc(Br)s1)C(=O)O | inconclusive [activator, full curve] | 
25 | CN(C)c1cccc(/C=C(\C#N)c2ccccc2)c1 | inconclusive [inhibitor, single point] | 
26 | COc1ccc(F)cc1C(=O)C1CCCN(Cc2c[nH]c3ccccc23)C1 (centres undefined) | inconclusive [activator, partial curve, poor fit] | 
27 | O=C(Cc1ccccc1F)c1ccc(O)cc1O | inconclusive [inhibitor, single point] | 
28 | Cn1cc(C=C2C(=O)CC(C)(C)CC2=O)c2ccccc21 |  | inactive: 3.57%
29 | Cc1ccccc1NC(=O)c1ccc(Nc2c([N+](=O)[O-])cc([N+](=O)[O-])c3ccccc23)cc1 | inconclusive [inhibitor, partial curve] | 
30 | CC(C)(C)c1csc(NNC(=O)c2ccc(Br)cc2)n1 | inconclusive [inhibitor, single point] | 
31 | CS(=O)(=O)N1CCN(C(=O)Cc2ccccc2Cl)CC1 | inconclusive [inhibitor, partial curve, poor fit] | 
32 | CCOc1ccc(-n2c(O)cc(=O)[nH]c2=O)cc1 | inconclusive [activator, full curve] | 
33 | O=C(Nc1ccc(N=Nc2ccccc2)cc1)c1ccccc1Cl | inconclusive [inhibitor, partial curve] | 
34 | COC(=O)c1sc(-c2ccc(C(C)(C)C)cc2)cc1NC(=O)c1ccccc1C(=O)O | inconclusive [inhibitor, single point] | 
35 | CCOC(=O)c1ccc(NC(=O)N2CCN(Cc3ccccc3)CC2)cc1 | inconclusive [activator, partial curve] | 
36 | CC(C)NC(=O)Nc1ccc(Br)cc1Cl | inconclusive [inhibitor, partial curve] | 
37 | Nc1nc(CCl)nc(Nc2ccc3ccccc3c2)n1 | inconclusive [activator, full curve, poor fit] | 
38 | CC(=O)N(CC(O)CN(C(C)=O)c1c(I)c(C(=O)NC[C@@H](O)CO)c(I)c(C(=O)NC[C@@H](O)CO)c1I)c1c(I)c(C(=O)NC[C@@H](O)CO)c(I)c(C(=O)NC[C@@H](O)CO)c1I |  | inactive: 12% [at 25.7 µM]
39 | O=c1c2c(-c3ccccc3)csc2nc2c3ccccc3c(NCCN3CCOCC3)nn12 | inconclusive [inhibitor, single point] | 
40 | COc1cccc(/C=C/C(=O)Nc2ccc3nc4n(c(=O)c3c2)CCCC4)c1OC | inconclusive [inhibitor, single point] | 
41 | CCOC(=O)CSc1nc(-c2ccccc2)cc(C(F)(F)F)n1 | inconclusive [activator, single point] | 
42 | O=C(CNC(=O)c1ccccc1Br)N/N=C/c1ccccc1O |  | inactive: -8.11%
43 | Cc1c(-n2c(SCC(=O)O)nnc2-c2ccccc2Cl)c(=O)n(-c2ccccc2)n1C | inconclusive [inhibitor, single point] | 
44 | CC(NC(=O)c1cc(COc2ccc3ncccc3c2)on1)c1ccc(F)cc1 (centres undefined) | inconclusive [inhibitor, partial curve] | 

Row | Structure (SMILES) | Potency | activity change, negative = inhibition
45 | CC(C(=O)O)c1cccc(C(=O)c2ccccc2)c1 (centres undefined) | inconclusive [inhibitor, single point] | 
46 | COc1ccc2cc(C(=O)N/N=C/c3sc4ccccc4c3O)ccc2c1 | inconclusive [inhibitor, single point] | 
47 | Fc1ccc(C2CC(c3cccs3)=NN2c2ccccc2)cc1 (centres undefined) | inconclusive [activator, partial curve] | 
48 | S=C(NCCc1c[nH]c2ccccc12)NC1CC1 | inconclusive [inhibitor, single point] | 
49 | COC(=O)CCN1CCc2cc(N=Nc3ccc([N+](=O)[O-])cc3)ccc21 | inconclusive [inhibitor, full curve] | 
50 | COc1ccc(-n2c(C)cc(C(=O)CSc3ccc(NC(C)=O)cc3)c2C)cc1 | inconclusive [inhibitor, single point] | 
51 | Fc1ccc(Nc2ccnc(Nc3ccc(F)cc3)n2)cc1 | inconclusive [inhibitor, single point] | 
52 | N#Cc1cccc(NC(=O)N2CCCC3(CCN(C(=O)c4ccco4)CC3)C2)c1 | inconclusive [inhibitor, partial curve, poor fit] | 
53 | CC1=C(C)C(C)=C(C#N)C(=C(C#N)C#N)N1 |  | inactive: -1.69% [at 57.5 µM]
54 | O=C(NC(=S)Nc1nc2ccccc2s1)c1cccs1 | inconclusive [inhibitor, single point] | 
55 | CC1O[C@@H](O[C@H]2C(Oc3cc(O)c4c(c3)OC(c3ccc(O)cc3)CC4=O)OC(CO)C(O)C2O)C(O)C(O)C1O (some centres undefined) |  | inactive: 11.9%
56 | c1cncc(CNc2ncnc3sc4c(c23)CCCC4)c1 |  | inactive: -10.5%
57 | S=C(NCCc1ccccc1)N1CCn2cccc2C1c1ccncc1 (centres undefined) | inconclusive [inhibitor, partial curve] | 
58 | CC(=O)OCC(=O)[C@@]12OC3(CCCC3)OC1CC1C3CCC4=CC(=O)C=C[C@@]4(C)[C@]3(F)C(O)C[C@]12C (some centres undefined) |  | inactive: 8.77%
59 | COc1cc(C(=O)N[C@H](C(=O)Nc2nnc(C3CC3)s2)C(C)C)cc(OC)c1OC | inconclusive [activator, partial curve] | 
60 | CCN=c1scc(-c2ccc(F)cc2)n1/N=C/c1ccccn1 | inconclusive [inhibitor, partial curve] | 
61 | O=C1O/C(=C/Br)CCC1c1cccc2ccccc12 (centres undefined) | inconclusive [inhibitor, single point] | 
62 | CCOc1cc(N2CCOCC2)c(OCC)cc1NCC(=O)N1CCN(Cc2ccccc2)CC1 | inconclusive [inhibitor, single point] | 
63 | CCc1ccc(OCC(=O)N/N=C(\C)c2ccc3c(c2)OCCO3)cc1 | inconclusive [inhibitor, single point] | 
64 | Cc1ccc(S(=O)(=O)N(CCCO)CC(O)CON=C2c3ccccc3-c3ccccc32)cc1 (centres undefined) | inconclusive [inhibitor, single point] | 
